The full ranking holds about 81,000 sequences; the median of “one-hybrid fitness for binding parS DNA” is about -0.17, and the highest 2% start at about 0.51. The list shows a part of the results.
B1: Caulobacter ParB omega fusion; a variant is named by its letters at X, in order, B8GW30 (parent)
chain: MESVVVGEPGMSEGRRGLGRGLSALLGEVDAAPAQAPGEQLGGSREAPIEILQRNPDQPRRTFREEDLEDLSNSIREKGVLQPILVRPSPDTAGEYQIVAGERAWRAAQRAGLKTVPIMVRELDDLAVLEIGIIENVQRADLNVLEEALSYKVLMEKFERTQENIAQTIGKSXSHVANXMRLLXLPDEVQSYLVSGELTAXHARAIAAAADPVALAKQIIEGGLSVRETEALARKAPNLSAGKSKGGRPPRVKDTDTQALESDLSSVLGLDVSIDHRGSTGTLTITYATLEQLDDLCNRLTRGI

Variants of: B1
Test: one-hybrid fitness for binding parS DNA (scaled: cognate 1, non-cognate 0); higher = stronger binding
Conditions: with parS DNA site
Outline: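 In E. coli USO, a HIS3 reporter with its site placed 19 bp from the promoter was used to select Caulobacter ParB variants randomised at four specificity codons. Growth lasted 48 hours at 37°C on histidine-free M9 containing 0.1 mM IPTG and 5 mM 3-AT. Fitness was taken as the log change in variant-to-wild-type read ratio from Illumina sequencing of pre- and post-selection plasmids, rescaled between the non-cognate and cognate sites.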

Variant | one-hybrid fitness for binding parS DNA
THNY | ≤ 0.2
QGVV | ≤ 0.2
APDV | ≤ 0.2
HPHW | ≤ 0.2
ADYR | ≤ 0.2
QVCD | ≤ 0.2
EVVG | ≤ 0.2
NEFT | ≤ 0.2
QNQR | ≤ 0.2
PGWT | ≤ 0.2
IGNC | ≤ 0.2
TGLT | ≤ 0.2
IAGC | ≤ 0.2
VPSE | ≤ 0.2
PILG | ≤ 0.2
QHPN | ≤ 0.2
EDYS | ≤ 0.2
LYEP | ≤ 0.2
TSWS | ≤ 0.2
LDVY | ≤ 0.2
DQIL | ≤ 0.2
LEGG | ≤ 0.2
ADTV | ≤ 0.2
RPMG | ≤ 0.2
TLRT | ≤ 0.2
PHHG | ≤ 0.2

Variant | one-hybrid fitness for binding parS DNA
WCCS | ≤ 0.2
DLAA | ≤ 0.2
PDRY | ≤ 0.2
ETIQ | ≤ 0.2
KSGS | ≤ 0.2
RCFI | ≤ 0.2
CGEG | ≤ 0.2
HISC | ≤ 0.2
RLQN | 0.471
VMSL | ≤ 0.2
LRDV | ≤ 0.2
HYPV | ≤ 0.2
TMDY | ≤ 0.2
SCPE | ≤ 0.2
MDWS | ≤ 0.2
PRKR | ≤ 0.2
RVKG | 0.941
SGNW | ≤ 0.2
KTWM | ≤ 0.2
HDRR | ≤ 0.2
VTMA | ≤ 0.2
AYYS | ≤ 0.2
QLPI | ≤ 0.2
PRGH | ≤ 0.2
SQLD | ≤ 0.2
YVVK | ≤ 0.2

Variant | one-hybrid fitness for binding parS DNA
YEIR | ≤ 0.2
QGMV | ≤ 0.2
NAPF | ≤ 0.2
QHRS | ≤ 0.2
MKVK | ≤ 0.2
FRPV | ≤ 0.2
DGLS | ≤ 0.2
GEYL | ≤ 0.2
NSMM | ≤ 0.2
AASC | ≤ 0.2
GVRI | ≤ 0.2
QQHT | ≤ 0.2
YQLH | ≤ 0.2
TFNS | ≤ 0.2
LEAM | ≤ 0.2
VGMN | ≤ 0.2
FIRY | ≤ 0.2
KPPG | ≤ 0.2
PMHR | ≤ 0.2
VPQS | ≤ 0.2
STCR | ≤ 0.2
LLHL | ≤ 0.2
QGKW | ≤ 0.2
GWMS | ≤ 0.2
CPWG | ≤ 0.2
KPCD | ≤ 0.2

Variant | one-hybrid fitness for binding parS DNA
PRVG | ≤ 0.2
SSPP | ≤ 0.2
MARR | ≤ 0.2
WRLI | ≤ 0.2
SDED | ≤ 0.2
PLGP | ≤ 0.2
QETA | ≤ 0.2
VAPA | ≤ 0.2
LKAM | ≤ 0.2
NRSC | ≤ 0.2
FHES | ≤ 0.2
AWGT | ≤ 0.2
DLSR | ≤ 0.2
LLKK | ≤ 0.2
RVQV | ≤ 0.2
PCSP | ≤ 0.2
SPVA | ≤ 0.2
MLIL | ≤ 0.2
QLTT | ≤ 0.2
YTER | ≤ 0.2
VKGG | ≤ 0.2
GVRS | ≤ 0.2
SRQC | ≤ 0.2
LFHD | ≤ 0.2
TPDI | ≤ 0.2
HAYD | ≤ 0.2

Variant | one-hybrid fitness for binding parS DNA
QMHM | ≤ 0.2
VKQD | ≤ 0.2
NCYG | ≤ 0.2
HVTL | ≤ 0.2
DRPA | ≤ 0.2
YWMG | ≤ 0.2
GWAT | ≤ 0.2
ILMP | 0.236
QQLE | ≤ 0.2
DSLI | ≤ 0.2
NGTM | ≤ 0.2
YMGS | ≤ 0.2
HHSR | ≤ 0.2
HAND | ≤ 0.2
KAWF | ≤ 0.2
AANM | ≤ 0.2
NLRQ | ≤ 0.2
QDVN | ≤ 0.2
SCTC | ≤ 0.2
QDTC | ≤ 0.2
TELS | ≤ 0.2
GAGC | ≤ 0.2
ENSS | ≤ 0.2
WQGT | ≤ 0.2
TRDY | ≤ 0.2
QHYP | ≤ 0.2

Variant | one-hybrid fitness for binding parS DNA
DIGI | ≤ 0.2
QMKR | ≤ 0.2
RPIY | ≤ 0.2
DSQC | ≤ 0.2
NKPS | ≤ 0.2
QMGY | ≤ 0.2
PIAT | ≤ 0.2
RHET | 0.734
GCNP | ≤ 0.2
YAQR | ≤ 0.2
WYCS | ≤ 0.2
ELTG | ≤ 0.2
TQWK | ≤ 0.2
ADHV | ≤ 0.2
PREL | ≤ 0.2
RYYL | ≤ 0.2
CYWC | ≤ 0.2
CATS | ≤ 0.2
TMPF | ≤ 0.2
RKKK | ≤ 0.2
PQNE | ≤ 0.2
HRLN | ≤ 0.2
KNLG | ≤ 0.2

Reference: a collection of fitness landscapes (doi:10.1016/j.celrep.2020.107928)
